The list shows a part of the results. The list includes weakly bound sequences.

For the test, the target named is T1, MBP-FoxP3dN (UniProt Q99JB6).
T1 sequence: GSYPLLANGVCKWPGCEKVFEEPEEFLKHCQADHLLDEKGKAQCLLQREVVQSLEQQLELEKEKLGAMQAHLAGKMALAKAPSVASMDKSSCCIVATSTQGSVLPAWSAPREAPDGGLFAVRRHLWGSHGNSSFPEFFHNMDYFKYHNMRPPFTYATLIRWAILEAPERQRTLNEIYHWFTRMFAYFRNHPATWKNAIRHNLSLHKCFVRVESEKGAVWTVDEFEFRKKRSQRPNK
In words: PD-seq (MBP pull-down with sequencing). The following applies: 20 mM Tris-HCl pH 7.5, 100 mM NaCl, 1.5 mM MgCl2, 0.4 uM protein, 0.1 uM dsDNA library, 30 min, room temperature, amylose pull-down; high values mean tight binding; double strand, one strand shown.
For the sequence “GATGATTGTTCTCCCAGCTGATGAATTGTCGTGTTCGAGTAAACAAATTTTCCTAATCTTTCTGTTCAAGCGCCATCTAC”, the binding signal (RPM ratio (pull-down/input)) was found to be 0.915.

Consider “GATGATTGTTCTCCCAGCTGATGAATTTTGAAGATCGAGTAAACAAATTTTCCTAATCTTTCTGTTCAAGCGCCATCTAC”, for which the binding signal (RPM ratio (pull-down/input)) amounted to 0.254.

Turning to “GATGATTGTTCTCCCAGCTGATGAATTATGGACGTCGAGTAAACAAATTTTCCTAATCTTTCTGTTCAAGCGCCATCTAC”, the binding signal (RPM ratio (pull-down/input)) was 0.392. On to “GATGATTGTTCTCCCAGCTGATGAATTCTTCTTCTCGAGTAAACAAATTTTCCTAATCTTTCTGTTCAAGCGCCATCTAC”, for which the binding signal (RPM ratio (pull-down/input)) came to 0.275. As for “GATGATTGTTCTCCCAGCTGATGAATTACGTGCGTCGAGTAAACAAATTTTCCTAATCTTTCTGTTCAAGCGCCATCTAC”, the figure is 0.843; as for “GATGATTGTTCTCCCAGCTGATGAATTTACGCTATCGAGTAAACAAATTTTCCTAATCTTTCTGTTCAAGCGCCATCTAC”, 1.1. As for “GATGATTGTTCTCCCAGCTGATGAATTATGCACGTCGAGTAAACAAATTTTCCTAATCTTTCTGTTCAAGCGCCATCTAC”, the figure is 3.08. As for “GATGATTGTTCTCCCAGCTGATGAATTAGAGTCATCGAGTAAACAAATTTTCCTAATCTTTCTGTTCAAGCGCCATCTAC”, the figure is 0.569; as for “GATGATTGTTCTCCCAGCTGATGAATTTAGTGCATCGAGTAAACAAATTTTCCTAATCTTTCTGTTCAAGCGCCATCTAC”, 1.99.

“GATGATTGTTCTCCCAGCTGATGAATTCGACCGATCGAGTAAACAAATTTTCCTAATCTTTCTGTTCAAGCGCCATCTAC”: the binding signal (RPM ratio (pull-down/input)) was found to be 0.227. Turning to “GATGATTGTTCTCCCAGCTGATGAATTTTCCGATTCGAGTAAACAAATTTTCCTAATCTTTCTGTTCAAGCGCCATCTAC”, the binding signal (RPM ratio (pull-down/input)) is 0.245. As for “GATGATTGTTCTCCCAGCTGATGAATTACGATGTTCGAGTAAACAAATTTTCCTAATCTTTCTGTTCAAGCGCCATCTAC”, the figure is 1.56. For “GATGATTGTTCTCCCAGCTGATGAATTTGATGGTTCGAGTAAACAAATTTTCCTAATCTTTCTGTTCAAGCGCCATCTAC”, the binding signal (RPM ratio (pull-down/input)) is 4.3.

For the sequence “GATGATTGTTCTCCCAGCTGATGAATTCACTTTCTCGAGTAAACAAATTTTCCTAATCTTTCTGTTCAAGCGCCATCTAC”, the binding signal (RPM ratio (pull-down/input)) came to 0.392. Next, “GATGATTGTTCTCCCAGCTGATGAATTTCGGTTCTCGAGTAAACAAATTTTCCTAATCTTTCTGTTCAAGCGCCATCTAC”: 0.886. As for “GATGATTGTTCTCCCAGCTGATGAATTAACAATTTCGAGTAAACAAATTTTCCTAATCTTTCTGTTCAAGCGCCATCTAC”, the figure is 0.559; as for “GATGATTGTTCTCCCAGCTGATGAATTACTGATATCGAGTAAACAAATTTTCCTAATCTTTCTGTTCAAGCGCCATCTAC”, 0.445. Take “GATGATTGTTCTCCCAGCTGATGAATTGGGCCTCTCGAGTAAACAAATTTTCCTAATCTTTCTGTTCAAGCGCCATCTAC”: the binding signal (RPM ratio (pull-down/input)) came out at 4.79.

For “GATGATTGTTCTCCCAGCTGATGAATTGCGGAATTCGAGTAAACAAATTTTCCTAATCTTTCTGTTCAAGCGCCATCTAC”, the binding signal (RPM ratio (pull-down/input)) is 1.24. “GATGATTGTTCTCCCAGCTGATGAATTTATATACTCGAGTAAACAAATTTTCCTAATCTTTCTGTTCAAGCGCCATCTAC”: the binding signal (RPM ratio (pull-down/input)) turned out to be 3.39. Next, “GATGATTGTTCTCCCAGCTGATGAATTCACAAATTCGAGTAAACAAATTTTCCTAATCTTTCTGTTCAAGCGCCATCTAC”: 0.351; “GATGATTGTTCTCCCAGCTGATGAATTTTGTTTATCGAGTAAACAAATTTTCCTAATCTTTCTGTTCAAGCGCCATCTAC”: 7.19. As for “GATGATTGTTCTCCCAGCTGATGAATTGGCTCTTTCGAGTAAACAAATTTTCCTAATCTTTCTGTTCAAGCGCCATCTAC”, the figure is 0.389; as for “GATGATTGTTCTCCCAGCTGATGAATTTTTGGTTTCGAGTAAACAAATTTTCCTAATCTTTCTGTTCAAGCGCCATCTAC”, 0.401.

For “GATGATTGTTCTCCCAGCTGATGAATTGGAAGTATCGAGTAAACAAATTTTCCTAATCTTTCTGTTCAAGCGCCATCTAC”, the binding signal (RPM ratio (pull-down/input)) stood at 0.404. Next, “GATGATTGTTCTCCCAGCTGATGAATTCTAGTGATCGAGTAAACAAATTTTCCTAATCTTTCTGTTCAAGCGCCATCTAC”: 0.495; “GATGATTGTTCTCCCAGCTGATGAATTTGGAAGCTCGAGTAAACAAATTTTCCTAATCTTTCTGTTCAAGCGCCATCTAC”: 0.302. Regarding “GATGATTGTTCTCCCAGCTGATGAATTACTGTCGTCGAGTAAACAAATTTTCCTAATCTTTCTGTTCAAGCGCCATCTAC”, the binding signal (RPM ratio (pull-down/input)) turned out to be 0.462. In the case of “GATGATTGTTCTCCCAGCTGATGAATTTAAGCATTCGAGTAAACAAATTTTCCTAATCTTTCTGTTCAAGCGCCATCTAC”, the binding signal (RPM ratio (pull-down/input)) is 5.65.

Regarding “GATGATTGTTCTCCCAGCTGATGAATTTCTAGCATCGAGTAAACAAATTTTCCTAATCTTTCTGTTCAAGCGCCATCTAC”, the binding signal (RPM ratio (pull-down/input)) stood at 0.736.

For “GATGATTGTTCTCCCAGCTGATGAATTCGGTAGCTCGAGTAAACAAATTTTCCTAATCTTTCTGTTCAAGCGCCATCTAC”, the binding signal (RPM ratio (pull-down/input)) stood at 0.643.

(Values after article PMC12820563.)
